This passage reports binding signal results from PMC9911399, “Two distinct binding modes provide the RNA-binding protein RbFox with extraordinary sequence specificity”.

Substitutions are numbered along the chain they refer to; changes in the protein carry UniProt numbers. The list shows a part of the results.

The target of assay [1] is T1, RBFOX1 RRM RbFoxmut (Fox-RRM*) (Homo sapiens, UniProt Q9NWB1 109-208, R118D;E147R;N151S;E152T).
T1 sequence: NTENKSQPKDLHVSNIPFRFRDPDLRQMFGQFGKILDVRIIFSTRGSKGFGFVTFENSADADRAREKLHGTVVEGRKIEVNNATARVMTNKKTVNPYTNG
The experiment in a line: competition; 10 mM Tris pH 7.5, 150 mM NaCl, 3.4 mM EDTA, 0.001% NP-40, 30 C. The note with it: tags: His6 N-terminal (pET28a).

In assay [2] the target is T1, RBFOX1 RRM RbFoxmut (Fox-RRM*). The experiment in a line: EMSA; HiTS-Eq, 1 nM pool, 10 min; buffer printed only for the single-RNA assays: 10 mM Tris pH 7.5, 150 mM NaCl, 3.4 mM EDTA, 0.001% NP-40, 30 C. The note with it: tags: His6 N-terminal (pET28a); label: 5' 32P. In outline: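 Purified RbFox RRM, wild type or mutant, was incubated for 10 min in 50 µL with 1 nM of a 5′-radiolabelled RNA pool carrying 7 randomized nucleotides, whose flanks were annealed to DNA oligonucleotides, over a series of increasing protein concentrations. Unbound RNA was resolved on 8% native PAGE, cut out, reverse-transcribed, barcoded by PCR and sequenced on an Illumina HiSeq 2500. Relative association constants were derived from changes in read counts for each RNA species versus the control reaction and normalised to the cognate motif.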

In assay [1], UGCAUAU (ssRNA) displayed a binding signal of 203 nM.

B1: GCAUGCC (DNA:RNA)
RNA: GGGAGACCGGAAUUCAGAUUGUCCGCAUGCCUUAAAUCCCGUCGUAGCCACCA
DNA 1: CAATCTGAATTCCGGTCTCCC
DNA 2: TGGTGGCTACGACGGGATT
As to B1, the binding signal in assay [2] was 0.651 KA relative to UGCAUGU.

B2: AGCCAGA (DNA:RNA)
RNA: GGGAGACCGGAAUUCAGAUUGUCCAGCCAGAUUAAAUCCCGUCGUAGCCACCA
DNA 1: CAATCTGAATTCCGGTCTCCC
DNA 2: TGGTGGCTACGACGGGATT
Consider B2, for which the binding signal in assay [2] was 0.0803 KA relative to UGCAUGU.

B3: CACUGGG (DNA:RNA)
RNA: B2 RNA with A25C, G26A, C28U, A29G, A31G
DNA 1: CAATCTGAATTCCGGTCTCCC
DNA 2: TGGTGGCTACGACGGGATT
As to B3, the binding signal in assay [2] is 0.0836 KA relative to UGCAUGU.

B4: CUGUGAA (DNA:RNA)
RNA: B1 RNA with G25C, C26U, A27G, C30A, C31A
DNA 1: CAATCTGAATTCCGGTCTCCC
DNA 2: TGGTGGCTACGACGGGATT
As for B4, the binding signal in assay [2] was 0.116 KA relative to UGCAUGU.

B5: ACUCGUU (DNA:RNA)
RNA: B2 RNA with G26C, C27U, A29G, G30U, A31U
DNA 1: CAATCTGAATTCCGGTCTCCC
DNA 2: TGGTGGCTACGACGGGATT
Consider B5, for which the binding signal in assay [2] was 0.113 KA relative to UGCAUGU.

B6: CGCGUUA (DNA:RNA)
RNA: B2 RNA with A25C, C28G, A29U, G30U
DNA 1: CAATCTGAATTCCGGTCTCCC
DNA 2: TGGTGGCTACGACGGGATT
Consider B6, for which the binding signal in assay [2] is 0.111 KA relative to UGCAUGU.

B7: CACAUUG (DNA:RNA)
RNA: B2 RNA with A25C, G26A, C28A, A29U, G30U, A31G
DNA 1: CAATCTGAATTCCGGTCTCCC
DNA 2: TGGTGGCTACGACGGGATT
For B7, the binding signal in assay [2] is 0.116 KA relative to UGCAUGU.

B8: UCCCAGU (DNA:RNA)
RNA: B2 RNA with A25U, G26C, A31U
DNA 1: CAATCTGAATTCCGGTCTCCC
DNA 2: TGGTGGCTACGACGGGATT
For B8, in assay [2], the binding signal is 0.106 KA relative to UGCAUGU.

B9: ACUUACG (DNA:RNA)
RNA: B1 RNA with G25A, A27U, G29A, C31G
DNA 1: CAATCTGAATTCCGGTCTCCC
DNA 2: TGGTGGCTACGACGGGATT
For the molecule B9, the binding signal in assay [2] is 0.121 KA relative to UGCAUGU.

B10: GUUUCCA (DNA:RNA)
RNA: B1 RNA with C26U, A27U, G29C, C31A
DNA 1: CAATCTGAATTCCGGTCTCCC
DNA 2: TGGTGGCTACGACGGGATT
In the case of B10, in assay [2], the binding signal is 0.121 KA relative to UGCAUGU.

B11: UUUCCGG (DNA:RNA)
RNA: B2 RNA with A25U, G26U, C27U, A29C, A31G
DNA 1: CAATCTGAATTCCGGTCTCCC
DNA 2: TGGTGGCTACGACGGGATT
B11: the binding signal in assay [2] is 0.0808 KA relative to UGCAUGU.

B12: AGGAUCG (DNA:RNA)
RNA: B2 RNA with C27G, C28A, A29U, G30C, A31G
DNA 1: CAATCTGAATTCCGGTCTCCC
DNA 2: TGGTGGCTACGACGGGATT
In the case of B12, in assay [2], the binding signal is 0.296 KA relative to UGCAUGU.

B13: CUACAAG (DNA:RNA)
RNA: B2 RNA with A25C, G26U, C27A, G30A, A31G
DNA 1: CAATCTGAATTCCGGTCTCCC
DNA 2: TGGTGGCTACGACGGGATT
In the case of B13, the binding signal in assay [2] was 0.0447 KA relative to UGCAUGU.

B14: ACAGCUA (DNA:RNA)
RNA: B2 RNA with G26C, C27A, C28G, A29C, G30U
DNA 1: CAATCTGAATTCCGGTCTCCC
DNA 2: TGGTGGCTACGACGGGATT
With B14, the binding signal in assay [2] is 0.124 KA relative to UGCAUGU.

B15: CUCCUCC (DNA:RNA)
RNA: B2 RNA with A25C, G26U, A29U, G30C, A31C
DNA 1: CAATCTGAATTCCGGTCTCCC
DNA 2: TGGTGGCTACGACGGGATT
As to B15, the binding signal in assay [2] was 0.0813 KA relative to UGCAUGU.

B16: UCCUAGC (DNA:RNA)
RNA: B2 RNA with A25U, G26C, C28U, A31C
DNA 1: CAATCTGAATTCCGGTCTCCC
DNA 2: TGGTGGCTACGACGGGATT
Take B16: in assay [2], the binding signal is 0.108 KA relative to UGCAUGU.

B17: UUCAAGU (DNA:RNA)
RNA: B2 RNA with A25U, G26U, C28A, A31U
DNA 1: CAATCTGAATTCCGGTCTCCC
DNA 2: TGGTGGCTACGACGGGATT
As for B17, the binding signal in assay [2] is 0.0862 KA relative to UGCAUGU.

B18: CCAAGAU (DNA:RNA)
RNA: B1 RNA with G25C, U28A, C30A, C31U
DNA 1: CAATCTGAATTCCGGTCTCCC
DNA 2: TGGTGGCTACGACGGGATT
In the case of B18, the binding signal in assay [2] was 0.094 KA relative to UGCAUGU.

B19: AAUUAAA (DNA:RNA)
RNA: B2 RNA with G26A, C27U, C28U, G30A
DNA 1: CAATCTGAATTCCGGTCTCCC
DNA 2: TGGTGGCTACGACGGGATT
As to B19, the binding signal in assay [2] is 0.093 KA relative to UGCAUGU.

B20: GGAAGUA (DNA:RNA)
RNA: B1 RNA with C26G, U28A, C30U, C31A
DNA 1: CAATCTGAATTCCGGTCTCCC
DNA 2: TGGTGGCTACGACGGGATT
As for B20, the binding signal in assay [2] was 0.124 KA relative to UGCAUGU.

B21: GUAAUAC (DNA:RNA)
RNA: B1 RNA with C26U, U28A, G29U, C30A
DNA 1: CAATCTGAATTCCGGTCTCCC
DNA 2: TGGTGGCTACGACGGGATT
Take B21: the binding signal in assay [2] is 0.113 KA relative to UGCAUGU.

B22: ACCCGUU (DNA:RNA)
RNA: B2 RNA with G26C, A29G, G30U, A31U
DNA 1: CAATCTGAATTCCGGTCTCCC
DNA 2: TGGTGGCTACGACGGGATT
As for B22, in assay [2], the binding signal was 0.0752 KA relative to UGCAUGU.

B23: GGCUUAC (DNA:RNA)
RNA: B1 RNA with C26G, A27C, G29U, C30A
DNA 1: CAATCTGAATTCCGGTCTCCC
DNA 2: TGGTGGCTACGACGGGATT
B23: in assay [2], the binding signal is 0.0955 KA relative to UGCAUGU.

B24: CAUGACC (DNA:RNA)
RNA: B1 RNA with G25C, C26A, A27U, U28G, G29A
DNA 1: CAATCTGAATTCCGGTCTCCC
DNA 2: TGGTGGCTACGACGGGATT
Take B24: the binding signal in assay [2] is 0.0827 KA relative to UGCAUGU.

B25: CUCACUG (DNA:RNA)
RNA: B2 RNA with A25C, G26U, C28A, A29C, G30U, A31G
DNA 1: CAATCTGAATTCCGGTCTCCC
DNA 2: TGGTGGCTACGACGGGATT
In the case of B25, the binding signal in assay [2] was 0.13 KA relative to UGCAUGU.

B26: AGCGUAU (DNA:RNA)
RNA: B2 RNA with C28G, A29U, G30A, A31U
DNA 1: CAATCTGAATTCCGGTCTCCC
DNA 2: TGGTGGCTACGACGGGATT
In the case of B26, the binding signal in assay [2] is 0.149 KA relative to UGCAUGU.

B27: CACCAGC (DNA:RNA)
RNA: B2 RNA with A25C, G26A, A31C
DNA 1: CAATCTGAATTCCGGTCTCCC
DNA 2: TGGTGGCTACGACGGGATT
On to B27, for which the binding signal in assay [2] was 0.0769 KA relative to UGCAUGU.

B28: AGUUCUA (DNA:RNA)
RNA: B2 RNA with C27U, C28U, A29C, G30U
DNA 1: CAATCTGAATTCCGGTCTCCC
DNA 2: TGGTGGCTACGACGGGATT
With B28, the binding signal in assay [2] was 0.107 KA relative to UGCAUGU.

B29: ACUCGUG (DNA:RNA)
RNA: B2 RNA with G26C, C27U, A29G, G30U, A31G
DNA 1: CAATCTGAATTCCGGTCTCCC
DNA 2: TGGTGGCTACGACGGGATT
As for B29, the binding signal in assay [2] is 0.113 KA relative to UGCAUGU.

B30: GAUAGGA (DNA:RNA)
RNA: B2 RNA with A25G, G26A, C27U, C28A, A29G
DNA 1: CAATCTGAATTCCGGTCTCCC
DNA 2: TGGTGGCTACGACGGGATT
For B30, the binding signal in assay [2] is 0.0606 KA relative to UGCAUGU.
